Laboratory results: PubChem BioAssay AID686978 (National Center for Advancing Translational Sciences (NCATS), 2013)
In all, about 420,000 compounds went through this assay and about 64,000 (15%) were called active. The shares of active, inactive and inconclusive entries below differ from those in the screen. Calls follow the shape of the dose curve; as a rule, active = well fitted inhibition curve with a large enough effect; inconclusive = small, poorly fitted or top-dose-only effect; inactive = flat fitted curve, though single readings scatter. Potencies of inconclusive entries are left out as doubtful fits.

experiment: qHTS for Inhibitors of human tyrosyl-DNA phosphodiesterase 1 (TDP1): qHTS in cells in absence of CPT; conditions: DT40 Tdp1-/- hTDP1 cells, no CPT, ATP luminescence, 48 h; activity change, negative = growth inhibition: at 46.2 µM (top of the series) unless noted; also: nearly all actives have a fitted effect of over 55% in size
Procedure, shortened: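 Readout: luminescence from CellTiter-Glo after 30 min in the dark at RT. Cells: DT40 Tdp1-/- with stable hTDP1, 400/well. Exposure: compounds alone, ≥48 hr, 37 °C.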
% is scaled to controls: 0 for no effect and ±100 for the full control effect; potency is read from the fitted curve at half-maximal effect; tags tell the direction and shape of the fitted curve.

Compound	Potency	activity change, negative = growth inhibition
Cc1ccc(NC2=C(Cl)C(=O)c3ccccc3C2=O)cc1	active: 13 µM	
CC(=O)C[C@H](O)CC(=O)[C@@H]1OC(=O)[C@H](C)C/C=C\Cc2ccccc21	inactive	
CCc1cc(=O)oc2c(C)c(OCC(=O)N3CCC(C(=O)O)CC3)ccc12	inconclusive [inhibitor, full curve, poor fit]	
CC1CCN(S(=O)(=O)c2ccc(NC(=O)CNC3CCCCC3)cc2)CC1	inconclusive [inhibitor, single point]	
O=C(/C=C\c1cn(-c2ccccc2)nc1-c1cccs1)N1CCOCC1	inconclusive [inhibitor, single point]	
Clc1cnc(N/N=C/c2cccs2)c(Cl)c1	inconclusive [inhibitor, partial curve]	
O=C(NCc1ccccc1)C1C(=O)Nc2ccccc2C(=O)N1C1CCCC1 (configuration not stated)	inactive	
CCCCSc1nc2c([nH]1)c(=S)n(C)c(=O)n2C	active: 1.16 µM	
CCOc1ccc(-n2ccnc2SCC(=O)N2CCCc3ccccc32)cc1	inconclusive [inhibitor, partial curve]	
O=c1[nH]c(=O)n(Cc2ccco2)c2c1C(C(F)(F)F)(C(F)(F)F)N=C(c1ccco1)N2	inconclusive [inhibitor, single point]	
Cc1ccc(-n2c(SCC(=O)NCCN3C(=O)CSC3=O)nnc2-c2ccccc2)cc1C	inconclusive [inhibitor, partial curve]	
O=C(/C=C/c1ccc(OCCCF)cc1)NCc1ccc(Cl)cc1	inactive	
COc1cccc(CNC(=O)Cn2ncc3c(=O)oc4ccccc4c32)c1	inconclusive [inhibitor, full curve]	
COCc1c(C(=O)N/N=C/c2cccc3ccccc23)nnn1-c1nonc1N	inactive	
COc1ccc(N=C2NC(=O)/C(=C/C=C/c3ccccc3)S2)cc1	inconclusive [inhibitor, single point]	
COC(=O)c1ccc2nc(-c3cccc(N)c3)cn2c1	inconclusive [inhibitor, single point]	
C[C@H](O)CNC(=O)c1[nH]cnc1C(=O)Nc1ccc(CNC(=O)OC(C)(C)C)cc1	inconclusive [inhibitor, single point]	
Cc1cc(CN(C)C(=O)c2cc(COc3ccc(C)c(C)c3)on2)on1	inactive	
CCOc1ccccc1CNCCCSc1nnnn1C	inactive	
O=C(Nc1ccccc1)c1sc(Cl)nc1-c1ccccc1	inconclusive [inhibitor, single point]	
CN1CCN(c2ccc(CNC(=O)C3Cc4c(-c5ccc(Cl)cc5)ccnc4O3)cc2)CC1 (configuration not stated)	active: 16.4 µM	
CC1CC(=O)N(CC(=O)Nc2ccc(F)cc2F)c2ccccc2S1(=O)=O (configuration not stated)	inactive	
CCOC(=O)c1c(-c2ccccc2)oc2ccc(O)c(CN3CCN(C)CC3)c12	active: 2.31 µM	
O=Cc1ccc(C(=O)OCC(=O)Nc2ccc(F)cc2F)cc1	inactive	

Compound	Potency	activity change, negative = growth inhibition
COc1ccc(NC(=O)CCS(=O)(=O)c2ccccc2)c(OC)c1	inactive	
C=CCN1C(=O)/C(=C\c2ccco2)C(C(=O)OC)=C1C	inconclusive [inhibitor, single point]	
O=C(NNC(=O)c1c(O)c2ccccc2[nH]c1=O)c1ccccc1Br	inconclusive [inhibitor, single point]	
CC(=O)Nc1c(Cl)c(Cl)c2c(c1Cl)C(=O)c1cc(Cl)ccc1-2	inconclusive [inhibitor, single point]	
CCCN(Cc1cc2cccc(C)c2[nH]c1=O)C(=O)c1cccc(Cl)c1	inconclusive [inhibitor, single point]	
O=C(NCCCNC(=O)c1ccco1)c1ccc(Cl)cc1	inactive	
Cn1cc(C(=O)N/N=C/c2cccc([N+](=O)[O-])c2)c2ccccc21	inconclusive [inhibitor, partial curve]	
COc1ccc(C2C(=O)N(C3CCCCC3)CC(=O)N2Cc2ccco2)cc1 (configuration not stated)	inconclusive [inhibitor, partial curve, poor fit]	
CCNC(=S)Nc1ccc(OC(F)(F)F)cc1	inactive	
O=C(NCc1cccnc1)c1cccnc1Sc1ccc(Cl)cc1	inactive	
CN(C(=O)c1cc(C(=O)N(C)c2ccccc2)cc([N+](=O)[O-])c1)c1ccccc1	inconclusive [inhibitor, single point]	
O=C(NN1C(=O)NC2(CCCCC2)C1=O)c1cccs1	inactive	
COc1ccccc1/C=C/C(=O)Nc1ccc(S(=O)(=O)Nc2cc(C)on2)cc1	inactive	
O=C(NNC(=O)c1ccc(F)cc1)c1ccncc1	inactive	
CCOC(=O)C1(CC2CC2)CCN(Cc2cn(C)c3ccccc23)CC1	active: 18.4 µM	
CCN(c1ccccc1)S(=O)(=O)c1ccc(OC)c(NC(=O)Cc2ccc(OC)c(OC)c2)c1	inconclusive [inhibitor, single point]	
CCn1cc(C(=O)N[C@@H](C)C(=O)NCCCn2ccnc2)c(=O)c2cc3c(cc21)OCO3	inactive	
COc1cc(/C=N/NC(=O)c2ccc(COc3cc(C)ccc3C(C)C)cc2)cc(OC)c1O	active: 13 µM	
CC(=O)c1ccc[nH]1	inactive	
CC(C)c1ccc(S(=O)(=O)N2CCC(C(=O)NCC3(N(C)C)CCCCC3)CC2)cc1	inconclusive [inhibitor, single point]	
Cc1ccc(S(=O)(=O)N2CCCCC2)c(C)c1NS(C)(=O)=O	inactive	
Cc1cc(C(=O)C(C)Cl)c(C)n1Cc1ccco1 (configuration not stated)	inconclusive [inhibitor, single point]	
CCc1c(C)sc(NC(=O)c2ccc(Br)o2)c1C(=O)OC	inconclusive [inhibitor, partial curve]	
COc1ccc(CN(C)CC(=O)N2CCc3ccccc3C2)cc1	inconclusive [inhibitor, partial curve]	

Compound	Potency	activity change, negative = growth inhibition
CCOC(=O)[C@]12CCCC=C1N(Cc1cccc3ccccc13)C(=O)[C@H](CC(=O)NCCCN1CCCC1=O)C2	inconclusive [inhibitor, single point]	
Cc1cc(C(=O)NCC2CCC3(CCN(Cc4ccc(-c5ccccc5)cc4)CC3)O2)n(C)n1 (configuration not stated)	active: 4.61 µM	
O=C1CN(C(=O)c2ccc(S(=O)(=O)N3CCCC3)cc2)C(c2ccccc2)c2cc(F)ccc2N1 (configuration not stated)	inconclusive [inhibitor, single point]	
CCc1ccccc1NC(=S)N(CCN(C)C)C(C)c1cccnc1 (configuration not stated)	inactive	
OC[C@@H]1CN(Cc2ccc(Cl)cc2)C[C@H](n2cnc3c(NC4CCC4)ncnc32)O1	inconclusive [inhibitor, single point]	
CC/C(=C/c1ccccc1OC)c1cc(-c2ccccc2)cc2oc3ccccc3c12	inconclusive [inhibitor, single point]	
CC12CC(O)C3C(CCC4=CC(=O)CCC43C)C1CCC2=CCO (configuration not stated)	inconclusive [inhibitor, partial curve]	
COc1cc(C2C(Oc3ccccc3C)C(=O)N2Cc2ccc(F)cc2)cc(OC)c1OC (configuration not stated)	inconclusive [inhibitor, partial curve]	
CN(CC(=O)Nc1ccc(F)cc1)C(=O)COC(=O)Cc1c(F)cccc1Cl	active: 6.51 µM	
CCOC(=O)[C@]12CCC=C1N(Cc1ccc(Cl)cc1Cl)C(=O)[C@H](CC(=O)N1CCOCC1)C2	active: 20.6 µM	
CCn1nc(C)c(NS(=O)(=O)c2ccc(C)cc2)c1C	inconclusive [inhibitor, partial curve]	
CC(=O)c1ccc(N2CCN(C(=O)c3cc(-c4ccncc4)nc4ccc(Br)cc34)CC2)cc1	active: 20.6 µM	
N#Cc1c(-c2ccccc2)cc(-c2ccccc2)nc1SCC(O)CS(=O)(=O)Cc1ccc(Cl)cc1 (configuration not stated)	active: 3.26 µM	
O=C(CSc1n[nH]c(-c2ccc(Br)cc2)n1)NC1CCCC1	inconclusive [inhibitor, single point]	
Cc1ccc(S(=O)(=O)N2CCN(C(=O)CC(C)n3nc(C)c(Cl)c3C)CC2)cc1 (configuration not stated)	inactive	
CCC1CN(Cc2cccc3nccnc23)Cc2cc(OC)ccc2O1 (configuration not stated)	inconclusive [inhibitor, single point]	
CC(C)c1cccc(C(C)C)c1NC(=O)CCN1C(=O)NC2(CCCC2)C1=O	inactive	
O=C(Cn1ncc2c1-c1ccccc1OC2)N1CCN(Cc2ccccc2)CC1	inconclusive [inhibitor, single point]	
Oc1c(C(c2cccs2)N2CCN(c3ccccc3)CC2)sc2ncnn12 (configuration not stated)		inconclusive: -32.6% [inhibitor]
C/C(=N\S(=O)(=O)c1ccc(C)cc1)N1CCN(S(=O)(=O)c2ccccc2)C1C(C)C (configuration not stated)	inconclusive [inhibitor, single point]	
C=C[C@@H]1c2cccc(C)c2N(S(=O)(=O)c2ccc(C)cc2)[C@H](c2ccc(OC(C)=O)cc2)C1(C#N)C#N	inconclusive [inhibitor, single point]	
Cc1ccc(Cl)cc1NC(=O)c1cc2ccccc2cc1O	active: 2.91 µM	
CCn1cc(/C=C(\NC(=O)c2cc(OC)c(OC)c(OC)c2)C(=O)NCCCn2ccnc2)c2ccccc21	inconclusive [inhibitor, partial curve]	
OCCNC(=S)Nc1ccc(Cl)c(Cl)c1	inactive	
